{"source": "paper PMC12040169", "about": "(PLOS Biology, 2025)", "note": "The other results are listed elsewhere or left out."}
{"system": "T1, C. trachomatis L2/434/Bu expressing GFP (CTL2-GFP)", "T1 construct": "L2/434/Bu GFP intracellular growth in HeLa cells", "set-up": "species or system HeLa; C. trachomatis total inclusion area by high-content imaging, normalised to DMSO", "settings": "total inclusion area; 28.5 h, 10 µM; inhibitor", "how_it_was_run": "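Post-fluorescence-read fixation, DNA staining with Hoechst and high-content imaging; GFP inclusion area and number per well, and nuclei counts, used as proxies for bacterial growth and host viability.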"}
{"compound": "O=C(Nc1ccc2ncccc2c1)c1ccc(OC(F)(F)F)cc1", "note": "[CBK159815]", "% of control remaining": 87.8444}
{"compound": "CC1CCN(Cc2c(C3CCNCC3)[nH]c3ncccc23)CC1", "note": "[CBK285022]", "% of control remaining": 85.9347}
{"compound": "O=C(Nc1ccncc1)c1ccc(N2C(=O)c3ccccc3C2=O)cc1", "note": "[CBK287803]", "% of control remaining": 77.0239}
{"compound": "O=C(O)CC1C(=O)NCCN1Cc1ccc(-c2ccccc2)cc1", "note": "(stereo not drawn) [CBK269812]", "% of control remaining": 99.5033}
{"compound": "O=C1CC2(CCC3C(C(=O)NC4CCCC4)C32)Oc2ccccc21", "note": "(stereo not drawn) [CBK284922]", "% of control remaining": 118.391}
{"compound": "O=[N+]([O-])c1cc2c(cc1CN1CCN(Cc3ccccc3)CC1)OCO2", "note": "[CBK261548]", "% of control remaining": 112.826}
{"compound": "CC(NC(=O)c1cc(-c2ccccc2)nc2ccccc12)c1cccc(S(N)(=O)=O)c1", "note": "(stereo not drawn) [CBK298285]", "% of control remaining": 93.7068}
{"compound": "O=C(NC1CCCOC1)c1cc(-c2cccs2)no1", "note": "(stereo not drawn) [CBK282565]", "% of control remaining": 117.964}
{"compound": "COc1cc(OC)cc(C(=O)Nc2nnc(C(F)(F)F)s2)c1", "note": "[CBK099828]", "% of control remaining": 84.8557}
{"compound": "O=C(CCn1c(C(F)F)cc2cccnc21)NC1CCCCC1", "note": "[CBK285064]", "% of control remaining": 95.1742}
{"compound": "CC(C)(C)S(=O)(=O)Nc1nccnc1-c1cccs1", "note": "[CBK050765]", "% of control remaining": 80.5457}
{"compound": "CCc1nn2c(=O)cc(CNc3ccc4c(c3)OCCO4)nc2s1", "note": "[CBK297787]", "% of control remaining": 77.7692}
{"compound": "O=c1oc2cc(S(=O)(=O)NCc3ccco3)ccc2c2ccc(S(=O)(=O)NCc3ccco3)cc12", "note": "[CBK267177]", "% of control remaining": 116.345}
{"compound": "S=C(Nc1ccccc1)Nc1nc2ccccc2n1CCOc1ccccc1", "note": "[CBK265487]", "% of control remaining": 76.7256}
{"compound": "CCOC(=O)c1c(-c2ccc(OC)cc2)noc1C(=O)c1ccccc1", "note": "[CBK002295]", "% of control remaining": 85.4433}
{"compound": "Nc1ncc(-c2ccco2)nc1-c1ccc(C(=O)NCCO)cc1", "note": "[CBK064124]", "% of control remaining": 103.088}
{"compound": "C1=CCC(CN2CCN(C3CCN(Cc4ccccc4)CC3)CC2)CC1", "note": "(stereo not drawn) [CBK263469]", "% of control remaining": 80.9018}
{"compound": "Cc1cccc(-c2nnc(-c3ccc(NC(=O)CSCc4ccccc4)cc3)o2)c1", "note": "[CBK266775]", "% of control remaining": 111.896}
{"compound": "CC1Cc2cc(C(O)CN3CCCC3)ccc2N1C(=O)C1CC1", "note": "(stereo not drawn) [CBK286440]", "% of control remaining": 121.234}
{"compound": "Cc1cccnc1NC(=O)c1ccc(NC(C)C)c([N+](=O)[O-])c1", "note": "[CBK269494]", "% of control remaining": 98.3405}
{"compound": "Cc1ccc(S(=O)(=O)c2cccc(S(=O)(=O)N3CCCCC3)c2)cc1S(=O)(=O)N1CCCCC1", "note": "[CBK262207]", "% of control remaining": 87.6931}
{"compound": "CS(=O)(=O)N1CCC2(CC1)Cn1c(cc3ccccc31)C(=O)O2", "note": "[CBK282820]", "% of control remaining": 100.424}
{"compound": "CCOc1ccc(-c2cncc(Nc3cccc(C(F)(F)F)c3)n2)cc1", "note": "[CBK065798]", "% of control remaining": 20.2641}
{"compound": "O=C(CSCc1nc2ccccc2[nH]1)Nc1cccc(C(F)(F)F)c1", "note": "[CBK268474]", "% of control remaining": 86.5447}
{"compound": "COc1ccc(OC)c(NC(=O)CNC(=O)c2ccc(C)cc2)c1", "note": "[CBK268881]", "% of control remaining": 77.3789}
{"compound": "CN(C)c1nc(-c2ccc3c(c2)CCCN3S(C)(=O)=O)cs1", "note": "[CBK305016]", "% of control remaining": 61.9045}
{"compound": "COc1ccc(C(=O)CCN(C)CC(=O)O)cc1", "note": "[CBK287227]", "% of control remaining": 107.778}
{"compound": "CCC(CO)Nc1nc(-c2ccc(O)cc2)cn2ccnc12", "note": "(stereo not drawn) [CBK037471]", "% of control remaining": 88.5371}
{"compound": "CCc1cc(OCCCSc2nc(C)cc(O)n2)ccc1Cl", "note": "[CBK267364]", "% of control remaining": 116.478}
{"compound": "Cc1nc(C(F)(F)F)ccc1C(=O)N(C)CCN1CCCCC1", "note": "[CBK281917]", "% of control remaining": 109.853}
{"compound": "CCc1n[nH]c(C(=O)N2CCc3ncc(Cl)cc3C2)c1C", "note": "[CBK284856]", "% of control remaining": 113.851}
{"compound": "CC(Oc1ccc(Cl)cc1)C(=O)Nc1ncccn1", "note": "(stereo not drawn) [CBK288206]", "% of control remaining": 87.1478}
{"compound": "O=C(CC1Nc2ccccc2NC1=O)Nc1cccc(C(=O)O)c1", "note": "(stereo not drawn) [CBK263155]", "% of control remaining": 102.051}
{"compound": "O=C(O)C1CCCN(C(=O)NCCOc2ccccc2)C1", "note": "(stereo not drawn) [CBK161366]", "% of control remaining": 83.2659}
{"compound": "COc1cc2c(cc1NC(=O)C/C(C)=N/NC(=O)c1ccoc1C)oc1ccccc12", "note": "[CBK262953]", "% of control remaining": 87.1556}
{"compound": "NS(=O)(=O)c1ccc(CCNC(=O)c2ccc3c(c2)OCCO3)cc1", "note": "[CBK268128]", "% of control remaining": 74.1042}
{"compound": "Cc1nc2c(c(=O)c3ccccc3n2C)c(=O)n1Cc1ccco1", "note": "[CBK287776]", "% of control remaining": 96.133}
{"compound": "COC(=O)c1sc2ncccc2c1NS(=O)(=O)c1ccc(C(F)(F)F)cc1[N+](=O)[O-]", "note": "[CBK049969]", "% of control remaining": 87.5676}
{"compound": "NC(=O)COc1ccc(CNC(=O)CN2CCc3ccccc32)cc1", "note": "[CBK306330]", "% of control remaining": 77.6514}
{"compound": "O=C(Cc1ccccc1F)NCCn1nc2c(cc1=O)CCCCC2", "note": "[CBK284519]", "% of control remaining": 40.5641}
{"compound": "Clc1ccc(CN2CCC(Oc3cncc(OCc4cccnc4)n3)C2)cc1", "note": "(stereo not drawn) [CBK084451]", "% of control remaining": 15.5359}
{"compound": "O=C(NCC(O)COc1ccccc1)c1cnn2c(-c3ccccc3)ccnc12", "note": "(stereo not drawn) [CBK298320]", "% of control remaining": 76.4942}
{"compound": "COc1cccc(CNc2ccc(C3c4ccsc4CCN3C(C)=O)cc2)c1", "note": "(stereo not drawn) [CBK286443]", "% of control remaining": 106.352}
{"compound": "CCn1cc(CN2CCCCCC2c2cc(C)on2)c(C)n1", "note": "(stereo not drawn) [CBK282140]", "% of control remaining": 96.8411}
{"compound": "O=C(c1ccc(S(=O)(=O)c2ccc(F)cc2)c([N+](=O)[O-])c1)N1CCCCCC1", "note": "[CBK294453]", "% of control remaining": 63.918}
{"compound": "CC(C(=O)NCCC1=CCCCC1)N1CCOC(Cn2cccn2)C1", "note": "(stereo not drawn) [CBK305319]", "% of control remaining": 33.6144}
{"compound": "CCCn1c(SC(C)C(=O)N2CCOCC2)nc2ccc(Br)cc2c1=O", "note": "(stereo not drawn) [CBK305020]", "% of control remaining": 96.3566}
{"compound": "COCc1cc2n[nH]c(=O)n2c(-c2ccccc2)n1", "note": "[CBK288507]", "% of control remaining": 87.8237}
{"compound": "O=C(Nc1ccncc1)c1snnc1-c1ccccc1", "note": "[CBK287982]", "% of control remaining": 109.138}
{"compound": "Cn1c([C@H]2CCN(C(=O)c3cnccn3)C2)nc2ccccc21", "note": "[CBK289416]", "% of control remaining": 92.2792}
{"compound": "CCNS(=O)(=O)c1ccc(Cn2nc(NC(=O)C3COc4ccccc4O3)c3ccccc32)cc1", "note": "(stereo not drawn) [CBK061613]", "% of control remaining": 79.9522}
